About 7,500 (2.1%) of roughly 360,000 compounds were called active. The shares of active, inactive and inconclusive entries below differ from those in the screen. Calls follow the shape of the dose curve; as a rule, active = well fitted cell-killing curve with a large enough effect; inconclusive = small, poorly fitted or top-dose-only effect, or effect the other way, or another doubt; inactive = no such curve, though single readings can be large or run the other way. Potencies of inconclusive entries are left out as doubtful fits.
assay: qHTS for induction of synthetic lethality in tumor cells producing 2HG: qHTS for the HT-1080-IDH1KD cell line; settings: HT-1080 IDH1 knockdown viability, ATP luminescence, 48 h; activity, negative = toxicity: at 46.1 µM (top of the series) unless noted;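 as to activity, negative = toxicity: 0% = DMSO wells and -100% = cell-free medium wells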
Method in brief: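 HT-1080-IDH1KD cells (IDH1 knocked down), 750/well in RPMI with 5% FBS, treated with compound 48 h at 37 degrees C. Viability by CellTiter-Glo luminescence, normalised to DMSO and no-cell wells; concentration-response curves classed.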
Potency is read from the fitted curve at half-maximal effect; tags tell the direction and shape of the fitted curve.

| Compound | Potency | activity, negative = toxicity |
| --- | --- | --- |
| Cc1cccc(NC(=O)c2ccc(S(=O)(=O)NCc3cccnc3)cc2)c1 | inactive | – |
| Cc1ccc(F)c(S(=O)(=O)NC(=O)C2(C)CCN2C(=O)c2cccc3ccccc23)c1 (stereo not given) | inconclusive [rising, single point] | – |
| CCC(C)NC(=O)c1cnn2c(C)c3c(nc12)CCCC3 (stereo not given) | inconclusive [cytotoxic, single point] | – |
| CNc1ccc(Br)cc(C(=O)/C=C/c2ccc(Cl)cc2Cl)c1=O | active: 20.6 µM | – |
| O=C1NC(Cc2ccc(O)cc2)c2nc3cc(F)ccc3c(=O)n2-c2cc3ccccc3cc21 (stereo not given) | active: 18.4 µM | – |
| CCCCN(Cc1cc2ccccc2[nH]c1=O)S(C)(=O)=O | inactive | – |
| CCOC(=O)N/N=C/c1cn(Cc2ccccc2Cl)c2ccccc12 | inconclusive [cytotoxic, single point] | – |
| Cc1cc(=O)oc2cc(NC(=O)C(C)Oc3ccc(F)cc3)ccc12 (stereo not given) | inactive | – |
| O=C(c1ccco1)N(Cc1cccnc1)C(c1ccccc1)c1nc2ccccc2[nH]1 (stereo not given) | inactive | – |
| O=Nc1c(-c2ccccc2)[nH]n(-c2ccccc2)c1=O | inconclusive [cytotoxic, single point] | – |
| O=C(/C=C\c1ccccc1[N+](=O)[O-])Nc1ccccc1 | inactive | – |
| O=C1c2ccccc2C(Nc2cccc(C(F)(F)F)c2)N1Cc1ccco1 (stereo not given) | inconclusive [cytotoxic, single point] | – |
| O=C(CCl)N1N=C(c2ccco2)CC1c1ccco1 (stereo not given) | inconclusive [cytotoxic, single point] | – |
| CCN(CC)c1ccc(NC(=O)c2cccc(C)c2OC)c(C)c1 | inconclusive [cytotoxic, single point] | – |
| COc1ccc(CC(N)c2csc(NC(=O)c3cccc(OC(F)(F)F)c3)n2)cc1 (stereo not given) | active: 20.6 µM | – |
| CC(=O)N1/C(=C/c2ccc(N(C)C)cc2)C(=O)c2ccccc21 | inconclusive [cytotoxic, full curve] | – |
| CC(C)C[C@H](NC(=O)OC(C)(C)C)C(=O)N[C@@H](CO)[C@H](O)[C@@H]1C[C@@H]1C(=O)NC1CCCCC1 | inactive | – |
| NC(c1ccccc1)c1csc(NC(=O)Nc2cccc(Cl)c2)n1 (stereo not given) | active: 16.4 µM | – |
| Cc1ccc(OC2CCN(C(=O)[C@H]3O[C@@H](n4cnc5c(N)ncnc54)[C@H](O)[C@@H]3O)CC2)cc1 | inconclusive [cytotoxic, single point] | – |
| C=CCN1c2ccccc2[C@]23C[C@@H](C(=O)OC)N(C(=O)c4ccc(Br)cc4)C2=NC(C(=O)OC)=C(C(=O)OC)[C@H]13 | inconclusive [cytotoxic, partial curve] | – |
| COc1cccc(-c2csc(NC3OC(=O)c4c3ccc(OC)c4OC)n2)c1 (stereo not given) | inconclusive [cytotoxic, partial curve] | – |
| c1ccc(C(c2nnnn2C2CCCC2)N2CCCCCC2)nc1 (stereo not given) | – | inactive: 19.1% [at 9.24 µM] |
| Cc1cc(NC(=O)COC(=O)c2cc([N+](=O)[O-])ccc2N2CCOCC2)ccc1Br | inconclusive [cytotoxic, single point] | – |

| Compound | Potency | activity, negative = toxicity |
| --- | --- | --- |
| Cc1cccc(CC(=O)Nc2cccnc2)c1 | inactive | – |
| Nc1nc(-c2ccc(NC(=O)c3ccco3)cc2)cs1 | active: 16.4 µM | – |
| CCOC(=O)N/N=C(/c1ccccc1)C1CCCCC1 | inactive | – |
| COc1ccccc1N(Cc1ccccc1)S(=O)(=O)c1cc(C(=O)O)ccc1Cl | inconclusive [cytotoxic, single point] | – |
| CCOC(=O)C1(CCc2ccccc2)CCN(Cc2ccccn2)CC1 | inconclusive [cytotoxic, single point] | – |
| S=C(NCc1ccc(Cl)c(Cl)c1)NCc1ccco1 | inconclusive [cytotoxic, partial curve] | – |
| CCCc1cc(C(=O)Nc2nccs2)cs1 | inconclusive [cytotoxic, single point] | – |
| CCOC(=O)c1c(NC(=O)C2COc3ccccc3O2)sc2c1CC(C)(C)NC2(C)C (stereo not given) | active: 16.4 µM | – |
| CCCN(CCC)S(=O)(=O)c1ccc(C(=O)Nc2nnc(COC)o2)cc1 | inconclusive [cytotoxic, single point] | – |
| O=C(C[C@@H]1C[C@H]2c3cc(NC(=O)c4cccnc4)ccc3O[C@H]2[C@H](CO)O1)NCc1ccc(Oc2ccccc2)cc1 | inconclusive [cytotoxic, single point] | – |
| N#C/C(=C\c1cccc([N+](=O)[O-])c1)C(=O)NCc1ccc(Cl)cc1 | inconclusive [cytotoxic, single point] | – |
| Oc1c(Cl)cc(Cl)c(Cl)c1Cc1c(O)c(Cl)cc(Cl)c1Cl | active: 7.31 µM | – |
| COC(=O)C1C2CC3c4[nH]c5cc(OC)ccc5c4CCN3CC2CC(OC(=O)CC(C)=O)C1OC (stereo not given) | inconclusive [cytotoxic, partial curve] | – |
| CC12CN3CC(C)(CN(C1)C3c1ccc3ccccc3c1O)C2=O (stereo not given) | inconclusive [cytotoxic, single point] | – |
| CCCc1c(-c2ccc(O)cc2)nn(-c2ccc(O)cc2)c1-c1ccc(O)cc1 | inconclusive [cytotoxic, single point] | – |
| COc1ccc(OC)c(S(=O)(=O)N2c3ccccc3CC2C)c1 (stereo not given) | inconclusive [cytotoxic, single point] | – |
| O=C(Nc1ccc(Nc2ccccc2)cc1)Nc1ccccc1Cl | inconclusive [cytotoxic, partial curve] | – |
| CCOC(=O)/C(C#N)=C1\Nc2ccccc2N=C1N(CC(C)C)CC(C)C | inconclusive [cytotoxic, single point] | – |
| Cc1ccc2nc(C)c(C(=O)NN=C3CCN(C)CC3)n2c1 | active: 5.17 µM | – |
| Nc1c(C(=O)NC2CC2)c2nc3ccccc3nc2n1-c1ccc2c(c1)OCO2 | inactive | – |
| Cc1cc(O)c(/C=N/Nc2cccc(Cl)c2)c(=O)o1 | inconclusive [cytotoxic, partial curve] | – |
| O=C(NCc1cccnc1)/C(=C\c1ccc(-c2cccc(Cl)c2)o1)S(=O)(=O)c1ccccc1 | inconclusive [cytotoxic, single point] | – |
